Experimental data as given in the supplement of paper PMC3334620.
Over roughly 33,000 sequences, “E-score (-0.5 to 0.5)” has its median near -0.011; the highest 2% begin near 0.28. Some of the results follow.

Biological target: T1, Gcr1 (UniProt P07261)
T1 sequence: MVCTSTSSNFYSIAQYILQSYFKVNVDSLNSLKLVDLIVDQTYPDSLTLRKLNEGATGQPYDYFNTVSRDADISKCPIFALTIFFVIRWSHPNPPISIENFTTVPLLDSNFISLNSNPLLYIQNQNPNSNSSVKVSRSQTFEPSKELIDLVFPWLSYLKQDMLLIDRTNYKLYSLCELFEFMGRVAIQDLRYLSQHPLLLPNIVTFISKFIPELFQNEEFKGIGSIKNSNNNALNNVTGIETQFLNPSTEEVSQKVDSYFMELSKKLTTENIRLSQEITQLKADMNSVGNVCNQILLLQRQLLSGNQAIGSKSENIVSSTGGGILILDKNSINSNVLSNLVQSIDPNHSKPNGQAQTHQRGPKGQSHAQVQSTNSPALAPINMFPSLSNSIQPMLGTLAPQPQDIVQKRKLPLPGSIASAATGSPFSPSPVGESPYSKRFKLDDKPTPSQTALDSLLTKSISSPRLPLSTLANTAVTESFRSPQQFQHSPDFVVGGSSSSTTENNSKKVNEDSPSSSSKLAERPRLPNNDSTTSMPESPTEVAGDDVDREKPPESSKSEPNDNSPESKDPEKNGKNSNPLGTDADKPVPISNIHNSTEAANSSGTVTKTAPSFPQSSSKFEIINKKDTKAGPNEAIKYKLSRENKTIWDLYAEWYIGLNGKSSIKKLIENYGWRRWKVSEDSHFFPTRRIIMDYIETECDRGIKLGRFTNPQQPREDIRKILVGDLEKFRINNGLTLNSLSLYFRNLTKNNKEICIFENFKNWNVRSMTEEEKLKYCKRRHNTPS
Assay: PBM E-score (8-mer binding enrichment) (E-score (-0.5 to 0.5)); higher = stronger / more preferred TF binding; most listed sequences are background and not binding sites
Details: protein concentration: 100 nM; construct: GST-full length
Outline: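 Yeast transcription factors, full-length or as DNA-binding domains, were expressed with a GST tag using PURExpress in vitro transcription/translation. At about 100-200 nM they were applied to universal all-10-mer Agilent arrays, double-stranded by primer extension on fresh or once-stripped slides. Fluorescent anti-GST detected bound protein, and masliner normalised the scans. E-scores for ungapped eight-base words, pooled with reverse complements, came from the Universal PBM Analysis Suite.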

Sequence | PBM E-score
CCAAGTCG | -0.0633
GAGACAGC | -0.132
CCCACCTC | -0.0577
AGCTTACG | 0.0302
TGCCCGCA | 0.0917
ATATACGC | 0.243
CGAAGTCC | 0.00686
GTATAAGA | 0.113
GACCCTCA | -0.192
GCCGCTGA | 0.166
AATGCTGA | 0.00038
CCCTTAGG | -0.276
GTGAAAAA | 0.216
AGCGTTAG | -0.032
ATGAATAG | 0.0669
AGAGGAAC | 0.177
CTCCTCCA | 0.0338
AGGTTTCC | 0.154
AGCTTAGC | -0.27
AAAGCTGA | 0.113
GTTATTTA | 0.126
ACGAGAGT | -0.0462
CAATCGAC | 0.0514
ATGCCGTG | -0.0633
AAGCTAGC | -0.00019

Sequence | PBM E-score
CCATAATC | 0.0216
AGGCTGAC | -0.188
ACTGACAG | 0.0957
CAGGCGTC | 0.09
ATGAACAG | -0.0356
CGACCGAA | -0.144
AAGGGTAT | -0.113
GAAGTTGA | 0.0272
GGAATAGA | -0.126
CAGAGAAG | 0.115
GCCCGTAA | 0.169
AGAGTGCG | 0.0318
AGATCTAA | -0.21
AGGTGAAA | 0.0254
ACTCACAA | -0.0389
CAATGCCC | -0.0928
CACCGATC | 0.0144
CCACTAGC | 0.0324
GCGGATCC | 0.274
CCACAAGG | -0.00285
AATTCATG | 0.0757
ACCACAAT | 0.213
GCCGTTCA | -0.102
GAGACCTA | -0.0263
CCATAGAG | -0.0777

Sequence | PBM E-score
AGAGTGGA | 0.132
GCGACGAC | -0.0448
GAACGCGC | 0.162
ACTACCCG | -0.0834
AAAGCAGC | -0.0508
CTCATCGA | -0.099
CAAAGACG | 0.044
AACGCCAC | 0.00882
CATGATTA | -0.00157
ACCTCTCA | -0.085
ATGGGGAC | 0.125
CTACTAAC | 0.139
ATGCCGAC | 0.027
GCCGCCGC | 0.179
GGCCAACA | -0.225
CCCAGCGA | -0.176
ACACAGAT | -0.0567
CTACCTTC | -0.0216
ACGAGTTC | -0.0282
CAAGACAG | 0.0569
CAGCAATG | -0.166
AGACGGTG | 0.049
ATATCTGA | 0.103
ACCATAAG | -0.105
AGACGACA | -0.133

Sequence | PBM E-score
CATTCCCA | 0.103
ACCTGGAA | 0.154
ATGCCGCA | -0.038
GAGATTGA | 0.116
ACGCCCCC | 0.113
CGCACGTA | 0.00405
AAACCGCC | -0.114
CCCAGCTA | -0.0278
GCTCATCC | -0.217
TTCACAAA | 0.0868
CAGGGATA | 0.0069
CAGACGTA | -0.167
GACCAAGA | -0.0879
GTTGAAGA | -0.0128
CCAATGCG | -0.136
ACCATTTA | 0.0518
CTGCGGTA | -0.142
GGGCGTAC | -0.041
GAATATTA | 0.18
TTACCTAA | 0.0557
AGGGACAG | -0.201
ACCGCTGG | -0.115
CAATGCGA | 0.0573
CGCCCAAC | 0.0623
AATTAGCG | 0.0885

Sequence | PBM E-score
AGAACGTA | -0.138
AGTAGCCG | 0.0644
ACTTCCAG | 0.377
CCCGCGCC | 0.0213
GAACTCGC | 0.0911
TCTCAACA | 0.103
AGAGTAAT | 0.115
TCATTGCA | -0.191
CCCTCCCC | 0.176
AACAATGA | -0.0104
AATGTCTC | -0.146
ATTCTAAG | 0.0378
CTAGCTCC | -0.0243
AGGTCCGA | -0.114
ACTCTTCT | 0.0323
GAAGAGGA | 0.107
CCTCAAAC | -0.0617
CCACCCCG | 0.00394
GCAGGTTA | -0.277
AAATGACT | 0.139
AGGGCCCT | -0.17
ATCTGCTC | -0.0662
AAACACAT | 0.117
TACTGCTA | -0.227
ACGAGGGG | -0.0844

Sequence | PBM E-score
GCGTTGAC | -0.19
CCCAATAA | 0.0668
AGTCGTAC | -0.142
ATCCTCGG | 0.0754
TGGAGCAA | 0.125
AGAATAGC | 0.0451
ACTGCGGG | 0.0686
ATCAGACG | 0.0535
AGCAAGGA | -0.242
ACAGGTAG | 0.229
CACGAGGG | -0.0984
AGGACTAA | -0.114
AGATCCAC | 0.183
GAGCGGAA | 0.179
AATGTGAC | -0.132
AAAGTCAT | -0.188
AGCCATTG | -0.065
AACAACAA | -0.107
ACTCACTG | -0.0221
AAGTGTAA | -0.0607
CAACGGCC | 0.0391
CACCCGTC | -0.0956
CAAGTGGG | 0.0622
CGTGTGCA | -0.217
AAACGCGC | 0.17

Sequence | PBM E-score
CTGCATGC | -0.0512
AGGGTCTC | -0.108
CTCCGCGC | -0.127
GTTGCAAA | 0.0701
AATTAATC | 0.087
AATAGCCA | -0.116
GACACTAA | 0.104
AAGATCAA | 0.167
GATCTCAC | -0.257
CCGACTAA | -0.0699
ATCTATGC | -0.0275
TCTCGTCA | 0.0741
AACAGCCC | -0.199
ATCGTACG | -0.0863
AAACGCAC | 0.116
GAGAACTC | -0.213
CGCGATAG | -0.0829
AGTGCCTC | -0.258
AGAGAGTA | -0.412
TCTGGAAA | 0.231
GCTTATAC | -0.0642
CCCCTCGA | -0.12
